Laboratory results: the supplement of paper PMC8728848
The list shows a part of the results.

Legend:
Test in all cases: glycan array binding signal (z-score within array); higher = stronger binding
Conditions in all cases: glycan notation: IUPAC condensed, linker removed
[1] = molecular target: Fuc(a1-2)[Gal(a1-3)]Gal(b1-4)GlcNAc(b1-2)Man(a1-3)[Fuc(a1-2)[Gal(a1-3)]Gal(b1-4)GlcNAc(b1-2)Man(a1-6)]Man(b1-4)GlcNAc(b1-4)[Fuc(a1-6)]GlcNAc
In short: (§1)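 Arrays were curated from the Consortium for Functional Glycomics database, 3228 in total, and kept only where the protein sequence was available. Binding is expressed as a within-array Z-score. This score was averaged across arrays of the same protein sequence at different concentrations or buffers and across linkers, and negative values can be read as non-binding.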

[2] = molecular target: Fuc(a1-2)[Gal(a1-3)]Gal(b1-4)GlcNAc(b1-3)GalNAc
In short: as §1

[3] = molecular target: Fuc(a1-2)[Gal(a1-3)]Gal(b1-4)GlcNAc(b1-3)[Fuc(a1-2)[Gal(a1-3)]Gal(b1-4)GlcNAc(b1-6)]GalNAc
In short: as §1

[4] = molecular target: Fuc(a1-2)[Gal(a1-3)]Gal(b1-4)GlcNAc(b1-6)GalNAc
In short: as §1

[5] = molecular target: Fuc(a1-2)[Gal(a1-3)]Gal(b1-4)[Fuc(a1-3)]Glc
In short: as §1

[6] = molecular target: Fuc(a1-2)[Gal(a1-3)]Gal(b1-4)[Fuc(a1-3)]GlcNAc
In short: as §1

[7] = molecular target: Fuc(a1-2)[Gal(a1-3)]Gal(b1-4)[Fuc(a1-3)]GlcNAc(b1-3)GalNAc
In short: as §1

[8] = molecular target: Fuc(a1-2)[Gal(a1-4)]Gal(b1-4)GlcNAc
In short: as §1

[9] = molecular target: Fuc(a1-2)[GalNAc(a1-3)]Gal
In short: as §1

[10] = molecular target: Fuc(a1-2)[GalNAc(a1-3)]Gal(b1-3)GalNAc(a1-3)[Fuc(a1-2)]Gal(b1-4)GlcNAc
In short: as §1

[11] = molecular target: Fuc(a1-2)[GalNAc(a1-3)]Gal(b1-3)GalNAc(b1-3)Gal(a1-4)Gal(b1-4)Glc
In short: as §1

[12] = molecular target: Fuc(a1-2)[GalNAc(a1-3)]Gal(b1-3)GlcNAc
In short: as §1

[13] = molecular target: Fuc(a1-2)[GalNAc(a1-3)]Gal(b1-3)GlcNAc(b1-2)Man(a1-3)[Fuc(a1-2)[GalNAc(a1-3)]Gal(b1-3)GlcNAc(b1-2)Man(a1-6)]Man(b1-4)GlcNAc(b1-4)GlcNAc
In short: as §1

[14] = molecular target: Fuc(a1-2)[GalNAc(a1-3)]Gal(b1-3)GlcNAc(b1-2)Man(a1-3)[Fuc(a1-2)[GalNAc(a1-3)]Gal(b1-3)GlcNAc(b1-2)Man(a1-6)]Man(b1-4)GlcNAc(b1-4)[Fuc(a1-6)]GlcNAc
In short: as §1

[15] = molecular target: Fuc(a1-2)[GalNAc(a1-3)]Gal(b1-3)GlcNAc(b1-3)GalNAc
In short: as §1

[16] = molecular target: Fuc(a1-2)[GalNAc(a1-3)]Gal(b1-3)GlcNAc(b1-6)GalNAc
In short: as §1

[17] = molecular target: Fuc(a1-2)[GalNAc(a1-3)]Gal(b1-4)Glc
In short: as §1

[18] = molecular target: Fuc(a1-2)[GalNAc(a1-3)]Gal(b1-4)GlcNAc
In short: as §1

[19] = molecular target: Fuc(a1-2)[GalNAc(a1-3)]Gal(b1-4)GlcNAc(b1-2)Man
In short: as §1

[20] = molecular target: Fuc(a1-2)[GalNAc(a1-3)]Gal(b1-4)GlcNAc(b1-2)Man(a1-3)[Fuc(a1-2)[GalNAc(a1-3)]Gal(b1-4)GlcNAc(b1-2)Man(a1-6)]Man(b1-4)GlcNAc(b1-4)GlcNAc
In short: as §1

[21] = molecular target: Fuc(a1-2)[GalNAc(a1-3)]Gal(b1-4)GlcNAc(b1-2)Man(a1-3)[Fuc(a1-2)[GalNAc(a1-3)]Gal(b1-4)GlcNAc(b1-2)Man(a1-6)]Man(b1-4)GlcNAc(b1-4)[Fuc(a1-6)]GlcNAc
In short: as §1

[22] = molecular target: Fuc(a1-2)[GalNAc(a1-3)]Gal(b1-4)GlcNAc(b1-3)Gal(b1-4)GlcNAc
In short: as §1

[23] = molecular target: Fuc(a1-2)[GalNAc(a1-3)]Gal(b1-4)GlcNAc(b1-3)Gal(b1-4)GlcNAc(b1-3)Gal(b1-4)GlcNAc
In short: as §1

[24] = molecular target: Fuc(a1-2)[GalNAc(a1-3)]Gal(b1-4)GlcNAc(b1-3)GalNAc
In short: as §1

[25] = molecular target: Fuc(a1-2)[GalNAc(a1-3)]Gal(b1-4)GlcNAc(b1-3)[Fuc(a1-2)[GalNAc(a1-3)]Gal(b1-4)GlcNAc(b1-6)]GalNAc
In short: as §1

[26] = molecular target: Fuc(a1-2)[GalNAc(a1-3)]Gal(b1-4)GlcNAc(b1-6)GalNAc
In short: as §1

[27] = molecular target: Fuc(a1-2)[GalNAc(a1-3)]Gal(b1-4)[Fuc(a1-3)]GlcNAc
In short: as §1

[28] = molecular target: Fuc(a1-2)[GalNAc(a1-3)]Gal(b1-4)[Fuc(a1-3)]GlcNAc(b1-3)GalNAc
In short: as §1

[29] = molecular target: Fuc(a1-2)[GalNAc(a1-4)]Gal(b1-4)GlcNAc
In short: as §1

[30] = molecular target: Fuc(a1-2)[GalNAc(b1-3)]Gal
In short: as §1

Fuc(a1-3)GlcNAc = molecular target: Fuc(a1-3)GlcNAc
In short: as §1

[31] = molecular target: Fuc(a1-3)[Gal(b1-4)]Glc6S
In short: as §1

[32] = molecular target: Fuc(a1-3)[Gal(b1-4)]GlcNAc
In short: as §1

[33] = molecular target: Fuc(a1-3)[Gal(b1-4)]GlcNAc(b1-2)Man
In short: as §1

[34] = molecular target: Fuc(a1-3)[Gal(b1-4)]GlcNAc(b1-2)Man(a1-3)[Fuc(a1-3)[Gal(b1-4)]GlcNAc(b1-2)Man(a1-6)]Man(b1-4)GlcNAc(b1-4)GlcNAc
In short: as §1

[35] = molecular target: Fuc(a1-3)[Gal(b1-4)]GlcNAc(b1-2)Man(a1-3)[Fuc(a1-3)[Gal(b1-4)]GlcNAc(b1-2)Man(a1-6)]Man(b1-4)GlcNAc(b1-4)[Fuc(a1-6)]GlcNAc
In short: as §1

[36] = molecular target: Fuc(a1-3)[Gal(b1-4)]GlcNAc(b1-3)Gal(b1-3)[Fuc(a1-4)]GlcNAc
In short: as §1

B1: PX14367A-bth-493-35-493 (Bacteroides thetaiotaomicron) (protein)
chain: VSSDQVAVAGNAERLFNGAWYNLFEYGTTYANIGYRALQCQDDMMASDVVSRPKYGFNSSYQFNDVAIPSDGRTSFAWYLIYKTIDNCNTAISIKGDSEELRQAQGQALALRAFCYLHLVQHYQFTYLKDKDAPCVPIYTEPTTSGTKPKGKSTVAQVYQQIFDDLNLAQDYLTNYVRKGDGQKFKPNTDVVNGLMARAYLLTGQWGEAAKAAEAARKGYSLMTTTAEYEGFNNISNKEWIWGSPQTLSQSDASYNFYYLDATYVGAYSSFMADPHLMDTFVKGDIRLPLFQWMREGYLGYKKFHMRSDDTADLVLMRSAEMYLIEAEAKVRDGVALDQAVAPLNTLRTARGVGNYDVTGKTKEQVIDEILMERRRELWGEGFGITDVLRNQKAVERMALSEDMQKTEVDCWQEGGSFAKRNPLGHWFLNFPDGKAFSANSSYYLYAIPEKEINANPNL
With B1 the “glycan array binding signal (z-score)” value [1] was -0.445, the “glycan array binding signal (z-score)” value [2] was -0.206 and the “glycan array binding signal (z-score)” value [3] was -0.31. For the same binder, the “glycan array binding signal (z-score)” value [4] was -0.778, the “glycan array binding signal (z-score)” value [5] was -0.524 and the “glycan array binding signal (z-score)” value [6] was -0.374. The “glycan array binding signal (z-score)” value [7] was -0.426, the “glycan array binding signal (z-score)” value [8] was -0.256 and the “glycan array binding signal (z-score)” value [9] was -0.542. The “glycan array binding signal (z-score)” value [10] was -0.503, the “glycan array binding signal (z-score)” value [11] was -0.668 and the “glycan array binding signal (z-score)” value [12] was -0.371. For the same binder, the “glycan array binding signal (z-score)” value [13] was 0.408, the “glycan array binding signal (z-score)” value [14] was -0.109 and the “glycan array binding signal (z-score)” value [15] was -0.441. For the same binder, the “glycan array binding signal (z-score)” value [16] was -0.358, the “glycan array binding signal (z-score)” value [17] was -0.501 and the “glycan array binding signal (z-score)” value [18] was -0.494. For the same binder, the “glycan array binding signal (z-score)” value [19] was -0.753, the “glycan array binding signal (z-score)” value [20] was 0.1 and the “glycan array binding signal (z-score)” value [21] was 0.207. The “glycan array binding signal (z-score)” value [22] was 0.035, the “glycan array binding signal (z-score)” value [23] was -0.197 and the “glycan array binding signal (z-score)” value [24] was -0.479. The “glycan array binding signal (z-score)” value [25] was -0.525, the “glycan array binding signal (z-score)” value [26] was 0.92 and the “glycan array binding signal (z-score)” value [27] was -0.482. The “glycan array binding signal (z-score)” value [28] was 0.737, the “glycan array binding signal (z-score)” value [29] was -0.295 and the “glycan array binding signal (z-score)” value [30] was 0.042. For the same binder, the “glycan array binding signal (z-score)” value (Fuc(a1-3)GlcNAc) was -0.507, the “glycan array binding signal (z-score)” value [31] was 0.535 and the “glycan array binding signal (z-score)” value [32] was -0.378. The “glycan array binding signal (z-score)” value [33] was 0.1, the “glycan array binding signal (z-score)” value [34] was -0.409 and the “glycan array binding signal (z-score)” value [35] was -0.25. For the same binder, the “glycan array binding signal (z-score)” value [36] was -0.481.
